Data: PubChem BioAssay (Tox21)
Several values for one entry are separate records, joined by “and”; a condition that tells them apart may be missing. Equal values may be shown once. The inconclusive results got no clear call from the source; some entries with a clear call stand among them for comparison. Potencies of inconclusive entries are doubtful fits and often do not repeat. Activity calls are given as the source filed them. The call rests on the fitted dose curve; in most records, active means well fitted curve in the direction sought with a large enough effect in the repeat runs; inconclusive means weak or mixed curves; inactive means no such curve, though single readings can be large; an effect the other way counts as inactive or inconclusive.

experiment: qHTS RealTime-Glo MT Cell Viability Assay in HEK293 cells - 8 hour (AID 1224887); settings: RealTime-Glo luminescence; series mostly up to 76.8 µM; further: nearly all actives have a fitted effect of over 50% in size
Summary of the method: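 Cells were seeded together with NanoLuc luciferase and a prosubstrate that viable cells reduce to a luciferase substrate. After a 5 h incubation at 37 C/5% CO2, compounds were added and luminescence was measured repeatedly during 40 h of treatment.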
Potency means the concentration at half of the fitted maximal effect; tags describe the fitted curve by direction and shape.

| Compound | Potency |
| --- | --- |
| CCCCCCCCOC(=O)c1ccc(O)cc1 | inconclusive: 19.5 µM [cytotoxic, full curve] |
| CC/C(=C(\c1ccc(O)cc1)c1ccc(OCCN(C)C)cc1)c1ccccc1 | active: 27.6 µM |
| CCCCC(CC)CN1CN(CC(CC)CCCC)CC(C)(N)C1 (centres undefined) | active: 10.7 µM |
| CCCCCCOc1cc(C)c(O)c(C)c1C | active: 14 µM |
| C=C1C(C)(C)[C@@]2(Cl)C(Cl)[C@]1(Cl)C(Cl)(Cl)C2(Cl)Cl (some centres undefined) | active: 53.9 µM |
| Clc1ccccc1C(c1ccccc1)(c1ccccc1)n1ccnc1 | inconclusive: 8.49 µM [cytotoxic, partial curve, poor fit] |
| CN(C)c1ccc(C(=C2C=CC(=[N+](C)C)C=C2)c2ccccc2)cc1 | inconclusive: 2.13 µM [cytotoxic, partial curve] |
| C#C[C@]1(O)CC[C@H]2[C@@H]3CCC4=CC(=O)CC[C@@H]4[C@H]3CC[C@@]21CC | inconclusive: 24.6 µM [cytotoxic, partial curve, poor fit] and inconclusive: 43.6 µM [cytotoxic, partial curve] and inconclusive: 24.5 µM [cytotoxic, partial curve, poor fit] |
| CC(O)(c1ccc(Cl)cc1)c1ccc(Cl)cc1 | active: 34.7 µM |
| C[C@]12CC[C@@H]3c4ccc(O)cc4CC[C@H]3[C@@H]1CCC2=O | inactive |
| CC[C@H](C)C(=O)O[C@H]1C[C@@H](C)C=C2C=C[C@H](C)[C@H](CC[C@@H]3C[C@@H](O)CC(=O)O3)[C@H]21 | inconclusive: 62.5 µM [cytotoxic, partial curve] |

experiment: A CellTox Green Cytotoxicity Assay to monitor cytotoxicity in HEK293 cells - 16 hour (AID 1224888); settings: CellTox Green fluorescence; series mostly up to 76.8 µM; further: nearly all actives have a fitted effect of over 35% in size
Summary of the method: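 Nonlytic real-time cytotoxicity: HEK293 + CellTox Green reagent plated, 5 h preincubation, pintool compound addition (23 nL in DMSO), 37 C for 40 h, fluorescence measured at successive time points.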

| Compound | Potency |
| --- | --- |
| CC=O | active: 57.5 µM |
| CCN(CC)CCOc1ccc(/C(=C(\Cl)c2ccccc2)c2ccccc2)cc1 | active: 35.4 µM and inconclusive: 26.8 µM [activator, single point] |
| CN(C)C(=S)SC(=S)N(C)C | inconclusive: 24.5 µM [activator, partial curve] |
| O=C(NO)c1ccccc1 | inconclusive: 52.3 µM [activator, single point] |
| O=S1(=O)CC(Cl)(Cl)C(Cl)(Cl)C1 | inconclusive: 17.4 µM [activator, partial curve, poor fit] |
| CSc1ccc2c(c1)N(CCC1CCCCN1C)c1ccccc1S2 (centres undefined) | active: 30.8 µM and inconclusive: 26.8 µM [activator, single point] |
| CCCCCCCCCCn1cc[n+](CCCCCCCCCC)c1C | active: 19.5 µM |
| O=C1Cc2cc(CCN3CCN(c4nsc5ccccc45)CC3)c(Cl)cc2N1 | inconclusive: 26.8 µM [activator, single point] |
| CCCCCCCCCCCCN(CCO)CCO | inconclusive: 54.7 µM [activator, single point] |
| NC(=O)C1(N2CCCCC2)CCN(CCCN2c3ccccc3CCc3ccc(Cl)cc32)CC1 | inconclusive: 26.8 µM [activator, single point] |
| CC/C(=C(\c1ccc(O)cc1)c1ccc(OCCN(C)C)cc1)c1ccccc1 | active: 55.1 µM |
| CCCCCCCCOC(=O)c1cc(O)c(O)c(O)c1 | inconclusive: 61.6 µM [activator, single point] |
| C=C1C(C)(C)[C@@]2(Cl)C(Cl)[C@]1(Cl)C(Cl)(Cl)C2(Cl)Cl (some centres undefined) | inconclusive: 53.9 µM [activator, single point] |
| Clc1ccc2c(c1)C(N1CCNCC1)=Nc1ccccc1O2 | inconclusive: 54.9 µM [activator, single point] and inconclusive: 30.1 µM [activator, single point] |
| C#C[C@]1(O)CC[C@H]2[C@@H]3CCC4=CC(=O)CC[C@@H]4[C@H]3CC[C@@]21CC | inconclusive: 43.7 µM [activator, partial curve] |
| CC(O)(c1ccc(Cl)cc1)c1ccc(Cl)cc1 | inconclusive: 54.9 µM [activator, single point] |
| C[C@]12CC[C@@H]3c4ccc(O)cc4CC[C@H]3[C@@H]1CCC2=O | inconclusive: 55 µM [activator, single point] and inconclusive: 54 µM [activator] |
| CC[C@H](C)C(=O)O[C@H]1C[C@@H](C)C=C2C=C[C@H](C)[C@H](CC[C@@H]3C[C@@H](O)CC(=O)O3)[C@H]21 | inconclusive: 62.5 µM [activator, single point] and inconclusive: 26.8 µM [activator, single point] |
